Source: paper PMC6192633
Results are given in words; binding and its absence hold for the method and conditions named. In cells and extracts the contact can be indirect. Some binding calls cover weakened binding; strength is not graded here. Where a sequence is shown, tags or fusion partners need not be part of it.

Sequences of proteins named here, by UniProt entry; tags and fusion partners are left off. Residues count along the entry.
UniProt P22366: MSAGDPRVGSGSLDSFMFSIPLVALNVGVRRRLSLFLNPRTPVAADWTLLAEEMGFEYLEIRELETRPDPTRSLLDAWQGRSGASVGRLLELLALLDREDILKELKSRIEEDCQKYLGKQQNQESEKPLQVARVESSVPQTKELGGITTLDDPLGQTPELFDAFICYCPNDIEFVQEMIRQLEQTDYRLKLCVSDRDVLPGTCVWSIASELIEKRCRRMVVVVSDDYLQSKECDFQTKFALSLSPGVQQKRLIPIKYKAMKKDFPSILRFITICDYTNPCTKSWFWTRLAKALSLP
UniProt Q9QUK6, residues 26-835: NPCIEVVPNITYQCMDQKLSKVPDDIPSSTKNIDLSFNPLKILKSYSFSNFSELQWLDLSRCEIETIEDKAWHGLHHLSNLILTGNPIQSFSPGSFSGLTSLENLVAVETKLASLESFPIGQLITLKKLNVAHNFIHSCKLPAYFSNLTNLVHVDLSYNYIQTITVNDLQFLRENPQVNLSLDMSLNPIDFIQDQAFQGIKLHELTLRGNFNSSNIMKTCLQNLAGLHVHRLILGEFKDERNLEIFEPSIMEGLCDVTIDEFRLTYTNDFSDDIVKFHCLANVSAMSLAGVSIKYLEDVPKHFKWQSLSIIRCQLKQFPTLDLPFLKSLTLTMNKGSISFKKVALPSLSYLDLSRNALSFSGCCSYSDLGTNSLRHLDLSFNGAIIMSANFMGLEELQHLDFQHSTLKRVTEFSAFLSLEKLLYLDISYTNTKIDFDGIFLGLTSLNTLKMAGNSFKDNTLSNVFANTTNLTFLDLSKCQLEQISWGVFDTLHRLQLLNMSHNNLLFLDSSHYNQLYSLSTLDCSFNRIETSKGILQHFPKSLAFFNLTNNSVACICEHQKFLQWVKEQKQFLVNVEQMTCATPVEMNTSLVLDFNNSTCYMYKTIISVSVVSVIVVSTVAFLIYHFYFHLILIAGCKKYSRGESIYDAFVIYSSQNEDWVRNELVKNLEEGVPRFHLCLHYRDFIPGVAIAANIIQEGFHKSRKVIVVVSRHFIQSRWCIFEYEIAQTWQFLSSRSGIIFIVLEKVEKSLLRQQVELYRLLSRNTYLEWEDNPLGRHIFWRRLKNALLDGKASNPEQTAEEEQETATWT
UniProt Q99JY1: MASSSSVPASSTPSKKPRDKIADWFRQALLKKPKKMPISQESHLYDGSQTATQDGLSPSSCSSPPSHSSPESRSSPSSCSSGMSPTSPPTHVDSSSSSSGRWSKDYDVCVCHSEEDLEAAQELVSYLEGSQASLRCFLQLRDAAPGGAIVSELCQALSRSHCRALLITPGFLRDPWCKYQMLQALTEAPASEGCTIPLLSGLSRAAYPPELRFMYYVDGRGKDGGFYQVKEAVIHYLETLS

Key:
[1] = target: Flag-tagged MyD88 (mouse) (UniProt P22366); assay: co-IP; HEK293 cells co-transfected with Flag-MyD88 and HA-GPR108 together with HA-TLR4; anti-flag M2 beads; blots with anti-Flag and anti-HA
[2] = target: Flag-tagged MyD88 (mouse) (UniProt P22366); assay: co-IP; HEK293 or HEK293T cells co-transfected with Flag- and HA-tagged proteins; lysis buffer 10 mM Tris pH 7.4, 100 mM NaCl, 1 mM EDTA, 1 mM EGTA, 1% Triton X-100, 10% glycerol, 0.1% SDS, 0.5% deoxycholate; anti-flag M2 agarose 2 h at 4°C; blots with anti-HA and anti-Flag (Fig 6A: cells stimulated with LPS for different times, with or without GPR108, blot with anti-MyD88)
[3] = target: T1, Flag-tagged TLR3 (mouse) (UniProt Q99MB1); assay: as above
T1 sequence: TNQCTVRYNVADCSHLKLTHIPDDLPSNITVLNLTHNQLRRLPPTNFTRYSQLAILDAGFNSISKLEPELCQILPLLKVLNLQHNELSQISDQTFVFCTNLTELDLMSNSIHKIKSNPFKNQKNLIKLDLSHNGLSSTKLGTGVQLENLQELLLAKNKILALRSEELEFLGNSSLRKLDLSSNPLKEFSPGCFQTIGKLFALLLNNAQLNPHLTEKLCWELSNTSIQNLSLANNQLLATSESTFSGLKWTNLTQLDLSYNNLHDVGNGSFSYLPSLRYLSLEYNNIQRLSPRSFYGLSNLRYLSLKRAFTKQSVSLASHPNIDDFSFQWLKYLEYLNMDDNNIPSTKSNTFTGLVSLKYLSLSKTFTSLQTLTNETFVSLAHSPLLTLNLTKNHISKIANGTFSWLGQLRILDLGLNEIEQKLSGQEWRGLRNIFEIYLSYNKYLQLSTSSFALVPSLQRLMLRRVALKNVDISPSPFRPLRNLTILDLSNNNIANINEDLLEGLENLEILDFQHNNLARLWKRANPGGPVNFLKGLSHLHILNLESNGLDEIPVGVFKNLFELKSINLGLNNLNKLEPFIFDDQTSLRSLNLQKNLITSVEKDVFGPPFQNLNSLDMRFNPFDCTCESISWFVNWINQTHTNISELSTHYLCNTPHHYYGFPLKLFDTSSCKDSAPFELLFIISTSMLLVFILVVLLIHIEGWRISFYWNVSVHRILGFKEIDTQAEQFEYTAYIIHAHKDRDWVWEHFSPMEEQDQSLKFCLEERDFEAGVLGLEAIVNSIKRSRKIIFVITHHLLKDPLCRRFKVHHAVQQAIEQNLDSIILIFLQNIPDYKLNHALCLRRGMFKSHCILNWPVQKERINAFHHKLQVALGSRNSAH

[4] = target: T2, Flag-tagged TLR7 (mouse) (UniProt P58681); assay: as above
T2 sequence: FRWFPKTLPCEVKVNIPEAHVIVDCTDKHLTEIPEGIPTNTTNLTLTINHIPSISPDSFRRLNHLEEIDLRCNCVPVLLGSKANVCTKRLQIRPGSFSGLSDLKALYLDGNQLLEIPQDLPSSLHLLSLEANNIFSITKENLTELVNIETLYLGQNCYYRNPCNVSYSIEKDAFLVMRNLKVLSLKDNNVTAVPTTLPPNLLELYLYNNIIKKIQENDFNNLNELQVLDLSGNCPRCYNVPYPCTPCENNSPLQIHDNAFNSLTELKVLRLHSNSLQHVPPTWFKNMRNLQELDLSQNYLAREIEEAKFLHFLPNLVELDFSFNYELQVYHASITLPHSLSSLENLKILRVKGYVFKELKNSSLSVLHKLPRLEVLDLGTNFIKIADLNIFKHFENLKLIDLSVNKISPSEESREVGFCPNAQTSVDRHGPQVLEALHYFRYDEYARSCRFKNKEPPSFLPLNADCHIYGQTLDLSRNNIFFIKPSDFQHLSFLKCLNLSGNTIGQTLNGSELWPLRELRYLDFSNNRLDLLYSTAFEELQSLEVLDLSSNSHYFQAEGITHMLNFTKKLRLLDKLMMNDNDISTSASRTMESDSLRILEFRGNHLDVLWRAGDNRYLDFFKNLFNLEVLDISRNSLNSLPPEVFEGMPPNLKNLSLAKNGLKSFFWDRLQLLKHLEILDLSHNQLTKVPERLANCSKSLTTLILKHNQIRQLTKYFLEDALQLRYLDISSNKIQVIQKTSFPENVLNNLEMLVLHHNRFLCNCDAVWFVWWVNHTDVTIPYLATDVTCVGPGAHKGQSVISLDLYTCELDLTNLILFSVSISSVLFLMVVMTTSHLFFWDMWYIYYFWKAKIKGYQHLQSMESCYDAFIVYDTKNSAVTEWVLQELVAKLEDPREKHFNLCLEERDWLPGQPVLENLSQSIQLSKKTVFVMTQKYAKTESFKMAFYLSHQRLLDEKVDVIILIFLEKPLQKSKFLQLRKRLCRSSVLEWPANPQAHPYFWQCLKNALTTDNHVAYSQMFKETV

[5] = target: Flag-tagged TLR4 (mouse) (UniProt Q9QUK6); assay: as above
[6] = target: Flag-tagged TIRAP (mouse) (UniProt Q99JY1); assay: as above

binding [1]: binds | binding [2]: binds weakly | binding [3]: binds | binding [4]: binds | binding [5]: binds | binding [6]: binds weakly
B1: HA-tagged GPR108 (protein, UniProt Q91WD0 35-569)
chain: RIHRLTLTGEKRADIQLNSFGFYTNGSLEVELSLLRLSLQETEKKLPKVGFSLSRVRSGSVRSYSRRNSHECPLDRNSSNFLVLFLINIKDLQVQVRKYGEQKLFISPGLLPEAPTQSGPPKPDPAGTPKDNHVIHPSPTEMSAVKENQTAPQVSGDKTTPGEHRHSSERQPPTQDPSGKEKDQVLGLGHLNDSYNFSFHIVISSRAEEGQYSLNFHNCHNSIPGQEQPFDLTVMIREKNPEGFLSAAEIPLFKLYLIMSACFLAADIFWVSVLCKNTYSVFKIHWLMAALAFTKSVSLLFHSINYYFINSQGHPIEGLAVMHYITHLLKGALLFITIALIGSGWAFVKYMLSDKEKKIFGIVIPLQVLANVAYIVIESREEGASDYGLWKEILFLVDLICCGAILFPVVWSIRHLQDASGTDGKVAVNLARLKLFRHYYVMVICYIYFTRIIAILLQVAVPFQWQWLYQLLVESSTLAFFVLTGYKFQPAGDNPYLQLPQEDEEDVQMEQVMTDSGFREGLSKVNKTASGRELL
